Data reported in PubChem BioAssay AID686978 (National Center for Advancing Translational Sciences (NCATS), 2013).
Where “and” joins values, the source holds several entries; their conditions need not be identical. Equal values may be shown once. Among all 420,000 compounds or so, about 64,000 (15%) were called active. Inconclusive means that the source gave no clear call. Such entries were picked first, then a sample of the others. Calls follow the shape of the dose curve; as a rule, active = well fitted inhibition curve with a large enough effect; inconclusive = small, poorly fitted or top-dose-only effect; inactive = flat fitted curve, though single readings scatter. Potencies of inconclusive entries are doubtful fits and often do not repeat.

experiment: qHTS for Inhibitors of human tyrosyl-DNA phosphodiesterase 1 (TDP1): qHTS in cells in absence of CPT; details: DT40 Tdp1-/- hTDP1 cells, no CPT, ATP luminescence, 48 h; activity change, negative = growth inhibition: at 46.2 µM (top of the series) unless noted; also: nearly all actives have a fitted effect of over 55% in size
Summary of the method: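 Compound effects on proliferation are scored in DT40 Tdp1-/-;hTDP1 cells in the absence of CPT. ATP levels (CellTiter-Glo luminescence) are recorded after a ≥48 hr, 37 °C incubation.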
% is scaled to controls: 0 for no effect and ±100 for the full control effect; potency is read from the fitted curve at half-maximal effect; tags tell the direction and shape of the fitted curve.

Structure (SMILES) | Potency | activity change, negative = growth inhibition
CC(C)(C)C1CCC(=NNC(=O)c2ccccc2-n2cccc2)CC1 (stereo not given) | inactive | 
CCc1nc(Nc2ccc(F)cc2)c2oc3ccccc3c2n1 | inconclusive: 20.6 µM [inhibitor, single point] | 
COc1ccc(NC(=O)CN(C)C(=O)c2csc3c2CCCC3)cc1 | inconclusive: 0.0073 µM [inhibitor, full curve, poor fit] | 
NC(=O)CN(c1ccc(Oc2ccccc2)cc1)S(=O)(=O)c1ccccc1 | inconclusive: 29.1 µM [inhibitor, single point] | 
CCc1ccc(NC(=O)CSC2=Nc3ccccc3C3=NC(CCC(=O)NCc4ccco4)C(=O)N23)cc1 (stereo not given) | inconclusive: 29.1 µM [inhibitor, single point] | 
Cc1ccc(NC(=O)C(CC(=O)O)C2CCCO2)c(C)c1 (stereo not given) | inactive | 
CCOC(=O)c1nc2cc3n(c(C)c-2c1C)C(C)C(CC)=C3C (stereo not given) | active: 18.4 µM | 
COC(=O)C(Cc1ccccc1)NC(=O)c1cccc(S(=O)(=O)N(C)C)c1 (stereo not given) | inactive | 
CCCNC(=O)c1ccc2nc(CCc3ccccc3)oc2c1 | inconclusive: 4.61 µM [inhibitor, full curve, poor fit] | 
COc1ccc(OC)c(NC(=O)CSc2nc(N3CCOCC3)nc(N3CCOCC3)n2)c1 | inconclusive: 29.1 µM [inhibitor, single point] | 
Nc1c(N(CCCO)C(=O)CCCN2C(=O)c3cccc4cccc(c34)C2=O)c(=O)[nH]c(=O)n1Cc1ccccc1 | inconclusive: 29.1 µM [inhibitor, single point] | 
CCCc1nc2sc3c(c2c(=O)[nH]1)CCCC3 | inconclusive: 18.4 µM [inhibitor, single point] | 
CCOC(=O)C1(Cc2cccc(Cl)c2)CCCN(C(=O)c2c(CC)noc2C)C1 (stereo not given) | active: 11.6 µM | 
O=C(CN1CCN(S(=O)(=O)c2ccc(Br)cc2)CC1)N/N=C/c1ccc(Cl)c([N+](=O)[O-])c1 | active: 18.4 µM | 
CC(/C=N/NC(=O)c1n[nH]c2c1CCC2)=C\c1ccccc1 | active: 1.3 µM | 
COC(=O)CCC(=O)Nc1cccc(Cl)c1 |  | inconclusive: -25.5% [inhibitor]
CC(=O)c1ccc(NC(=S)Nc2ccc3cn[nH]c3c2)cc1 | inconclusive: 18.4 µM [inhibitor, single point] | 
CCC(=O)NC(c1ccco1)c1cc(Cl)c2cccnc2c1O (stereo not given) | active: 3.66 µM | 
Cc1cc(C)n(/N=C/c2ccccc2O)c(=O)c1 | inactive | 
COc1ccc(C(=O)n2nc(-c3ccco3)nc2NCc2cccs2)cc1OC | inconclusive: 29.1 µM [inhibitor, single point] | 
CC(=O)Nc1ccc(-c2ccnc3c2CC(C(=O)NCC2CCOCC2)O3)cc1 (stereo not given) | active: 4.11 µM | 
N#CC1(NC(=O)CSc2nnc(Cc3ccccc3)o2)CCCCC1 | inconclusive: 25.9 µM [inhibitor, single point] | 
CCOC(=O)C1C(c2ccc(OC)c(OC)c2)c2c([nH][nH]c2=O)CC1(C)O (stereo not given) | inconclusive: 0.0065 µM [inhibitor, full curve, poor fit] | 

Structure (SMILES) | Potency | activity change, negative = growth inhibition
CC(=O)c1cc2c(cc1N/C(=N/S(=O)(=O)c1ccc(C)cc1)c1ccccc1)OCO2 | inconclusive: 16.4 µM [inhibitor, single point] and inconclusive: 25.9 µM [inhibitor, single point] | 
Cc1ccc(NC(=O)C2(C)CCCN2C)cc1C (stereo not given) | inactive | 
Cc1ccc(C)c(-c2[nH]ncc2CN2CCCC(CO)(Cc3ccccc3C)C2)c1 (stereo not given) | active: 13 µM | 
CCOc1ccc(-c2nc(-c3ccc(OC)cc3)no2)cc1OCC | inconclusive: 25.9 µM [inhibitor, single point] | 
CN(Cc1ccc2c(c1)OCCO2)C(=O)CSc1ncnc2sccc12 | inconclusive: 29.1 µM [inhibitor, single point] | 
O=C(c1ccc(Cl)cc1[N+](=O)[O-])N1CCN(c2ccccn2)CC1 | inactive | 
COc1ccccc1NS(=O)(=O)c1cc(NC(=O)CNC(=O)c2cc(C)cc(C)c2)ccc1C | inconclusive: 18.4 µM [inhibitor, single point] | 
COc1ccc(N(C)S(=O)(=O)c2cccc(C(=O)N(C)Cc3ccc(C)o3)c2)cc1 | inconclusive: 18.4 µM [inhibitor, single point] | 
COc1ccc(-c2cc(C(=O)Nc3nc4ccccc4s3)c3ccccc3n2)cc1OC | inconclusive: 29.1 µM [inhibitor, single point] | 
Cc1ccnc(NC(=O)c2cccc(S(=O)(=O)N3CCN(c4ccccc4)CC3)c2)c1 | inconclusive: 29.1 µM [inhibitor, single point] | 
CCc1ccc(CNC(=O)C2CCCN(c3nc4ccccc4o3)C2)cc1 (stereo not given) | inactive | 
CC(C)(C)OC(=O)N1Cc2ccccc2C[C@H]1C(=O)NCC(=O)NCC1CCCO1 (stereo not given in full) | inactive | 
CC(C)(C)C(=O)O/N=C(\N)c1ccc(-c2csnn2)cc1 | inconclusive: 29.1 µM [inhibitor, single point] | 
COC(=O)C(NC(=O)CC(C)C)(Nc1nc2c(s1)CCCC2)C(F)(F)F (stereo not given) | active: 11.6 µM | 
Cc1ccc(NC(=O)c2ccco2)c(NC(=O)c2ccc(Cl)cc2)c1 | inactive | 
Cc1ccccc1CSc1nc2c(c(=O)[nH]1)CCC2 | inactive | 
CCOC(=O)c1cc(C)sc1NC(=O)CCC(=O)O | inactive | 
COCCNC(=S)Nc1ccc2nc(N3CCN(C)CC3)cc(C)c2c1 | inconclusive: 5.17 µM [inhibitor, full curve, poor fit] | 
C=CCn1c(Cc2cccs2)nnc1SCC(=O)c1cccc(Br)c1 | inconclusive: 29.1 µM [inhibitor, single point] | 
O=C(CSc1nc2ccccc2n1CCc1ccccc1)N1CCOCC1 | inconclusive: 29.1 µM [inhibitor, single point] | 
CCOc1ccc(CNCc2c(C(=O)O)n(Cc3ccccc3F)c3cc(OC)ccc23)cc1 | active: 5.8 µM | 
CC1(C(=O)Nc2nnc(SCc3ccccc3)s2)Cc2ccccc2C(=O)O1 (stereo not given) | inconclusive: 10 µM [inhibitor, partial curve] | 
